From PubChem BioAssay AID686978 (National Center for Advancing Translational Sciences (NCATS), 2013)
The whole screen tested about 420,000 compounds, of which about 64,000 (15%) were called active. The shares of active, inactive and inconclusive entries below differ from those in the screen. Calls come from the whole dose curve; as a rule, active = well fitted inhibition curve with a large enough effect; inconclusive = small, poorly fitted or top-dose-only effect; inactive = flat fitted curve, though single readings scatter. Potencies of inconclusive entries are left out as doubtful fits.

Assay: qHTS for Inhibitors of human tyrosyl-DNA phosphodiesterase 1 (TDP1): qHTS in cells in absence of CPT; note: nearly all actives have a fitted effect of over 55% in size
Details: DT40 Tdp1-/- hTDP1 cells, no CPT, ATP luminescence, 48 h; series mostly up to 46.2 µM
Method in brief: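 Cells were dispensed at 400 per well, compounds added by pin tool, plates incubated ≥48 hr at 37 °C, then CellTiter-Glo added for 30 min at room temperature before luminescence reading. Line: DT40 Tdp1-/- complemented with hTDP1; camptothecin omitted.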
Potency is the fitted concentration of half-maximal effect; tags give direction and shape of the fitted curve.

SMILES	Potency
c1ccc2c(c1)-c1nc3ccccc3cc1C2N1CCOCC1 (stereo not given)	inconclusive [inhibitor, single point]
O=C(Nc1cccc(Cl)c1)c1nc[nH]c1C(=O)N1CCc2ccccc2C1	inconclusive [inhibitor, single point]
COc1ccc(OC)c(C(=O)N2CCC(CCC(=O)NC3CC3)CC2)c1	inactive
CC(C)(C)c1csc(Sc2ncccc2[N+](=O)[O-])n1	inconclusive [inhibitor, single point]
COC(=O)c1ccc2c(c1)c(-c1ccccc1)c(-c1ccccc1)n2C	inactive
CSc1nnc(NC(=O)c2ccc(S(=O)(=O)N3CCOCC3)cc2)s1	inactive
CCC1=C(OC(=O)N(CC)CC)N2C(=O)OC(=NCCc3c[nH]c4ccccc34)[C@]2(C)[C@H]2C1=CC[C@H]1C(=O)N(CC)C(=O)[C@H]12	inconclusive [inhibitor, single point]
Cc1ccccc1N1CCN(C(=O)c2ccc(Oc3ccc(C(F)(F)F)cn3)cc2)CC1	active: 12.6 µM
CC(C)COc1ccc(C(=O)N2CCN(CCc3ccncc3)CC2)cc1	inconclusive [inhibitor, single point]
CC(C)C[C@@]12C(=O)N(c3cccc(F)c3)C(=O)N1[C@H](c1ccc(F)cc1)[C@@H]1C(=O)N(C3CCCCC3)C(=O)[C@@H]12	inconclusive [inhibitor, partial curve]
CN(C)c1ccc(/C=C/c2c(F)cnc3ccccc23)cc1	active: 3.16 µM
Cc1cc(F)ccc1-c1cc(C(=O)NCc2cccs2)[nH]n1	inconclusive [inhibitor, single point]
CC(=O)N1c2ccc(S(=O)(=O)NCC3CCC(C(=O)NC4CCCCC4C)CC3)cc2CC1C (stereo not given)	inconclusive [inhibitor, single point]
CCOC(=O)Cc1csc(NC(=O)CCc2ccc(S(=O)(=O)N3CCOCC3)cc2)n1	inconclusive [inhibitor, full curve, poor fit]
Cc1ccc(C(=O)O/N=C\c2ccc(N3CCCCC3)c([N+](=O)[O-])c2)cc1	active: 13 µM
COc1ccc(Cl)cc1-c1n[nH]c(=S)n1C1CCCCC1	inactive
COc1ccccc1C(=O)Nc1ccc(N2CCCCC2)cc1	inconclusive [inhibitor, single point]
COc1ccc(-c2cc(C(=O)OCC(=O)NC3CC3)c3ccccc3n2)cc1OC	inconclusive [inhibitor, partial curve]
CCOc1cc(C)c(C(C)C)cc1S(=O)(=O)N1CC(C)OC(C)C1 (stereo not given)	inconclusive [inhibitor, single point]
Cc1ccc(S(=O)(=O)/C(C#N)=C/c2c[nH]c3ccccc23)cc1	inconclusive [inhibitor, single point]
Cc1ccc(-c2ccc(=O)n(CCC(=O)NCCc3ccccc3)n2)cc1	inconclusive [inhibitor, single point]
CCOC(=O)C1CCN(S(=O)(=O)c2ccc3c4c(cccc24)C(=O)N3)CC1	inactive
Cc1ccccc1NC(=O)C(C)OC(=O)CCC(=O)c1ccccc1 (stereo not given)	inactive
CC(C)C[C@H]1CNC(=O)C(=O)N1C[C@@H]1CCCN1C[C@H](Cc1ccc(O)cc1)N1C[C@H](Cc2ccccc2)N(CC2CCCCC2)C(=O)C1=O	inconclusive [inhibitor, single point]

SMILES	Potency
O=C(NCCc1ccc(F)cc1)Nc1ccc([N+](=O)[O-])cc1	active: 16.4 µM
COc1cccc(CN2c3ccccc3-c3nc(SCC(=O)Nc4ccccc4Cl)ncc3S2(=O)=O)c1	inactive
COc1ccc(NC(=S)N/N=C2\CC(C)(C)Oc3ccc(O)cc32)cc1	inconclusive [inhibitor, single point]
COCCN(Cc1ccc(F)cc1)C(=O)c1cc2ccccc2oc1=O	inactive
CCc1ccc(C(C)(O)C(CN2CCOCC2)c2ccccc2)cc1 (stereo not given)	active: 20.6 µM
O=C1C(Nc2ccccc2)=C/C(=N/S(=O)(=O)c2cccs2)c2ccccc21	active: 4.61 µM
COc1ccc2c(c1)sc(N)[n+]2Cc1cc(C)cc2cccnc12	active: 2.59 µM
Cc1ccc(Cn2c(CO)cnc2SCC(=O)Nc2ccc(C)c(Cl)c2)cc1	active: 23.1 µM
CCOC(=O)c1ccc(S(=O)(=O)N2CCC(C(=O)N3CCN(c4ccccc4OC)CC3)CC2)cc1	inactive
O=C(O)C1CCCN1c1nc(Cl)ccc1[N+](=O)[O-] (stereo not given)	inactive
O=C(c1ccc(OC2CCN(Cc3ccc(F)cc3)CC2)cc1)N1CCCC1	inactive
COc1cccc(Nc2nnc(SCc3nc4ccccc4s3)s2)c1	inconclusive [inhibitor, single point]
CC(=O)Nc1cccc(-c2csc(Nc3ccc(Cl)cn3)n2)c1	inconclusive [inhibitor, single point]
COc1ccc(N(CC(=O)NCc2ccccc2C)S(=O)(=O)c2ccccc2[N+](=O)[O-])c(OC)c1	inconclusive [inhibitor, single point]
CCN1CCc2c(sc(-n3cccc3)c2C(C)NC(=O)Nc2ccc(Br)cc2)C1 (stereo not given)	active: 13 µM
CN(Cc1ccccc1)C(=O)c1nc[nH]c1C(=O)N1CCc2ccccc2C1	inconclusive [inhibitor, single point]
Cn1ccc2c(-c3cccc4ccccc34)cc3c(c21)C1CCC3C1 (stereo not given)	inconclusive [inhibitor, full curve, poor fit]
O=C(NC1CCS(=O)(=O)C1)/C(=C\c1ccc(F)cc1)NC(=O)c1ccccc1 (stereo not given)	inactive
COc1ccccc1CNC(=O)c1ccc(CS(=O)Cc2cccc(Cl)c2)o1 (stereo not given)	inconclusive [inhibitor, partial curve]
Cc1cccc(-n2cnc3cc(C(=O)NCCN4CCOCC4)ccc32)c1	inactive
OC[C@H]1O[C@@H](O[C@@H]2[C@@H](CO)O[C@@](O)(CO)[C@H]2O)[C@H](O)[C@@H](O)[C@H]1O	inactive
CCOC(=O)C[C@H]1c2ccccc2S(=O)(=O)N1c1ccccc1	inconclusive [inhibitor, single point]
CCN(CC(=O)Nc1c(F)cccc1F)C(=O)CNC(=O)C1CCCCC1	inactive
CCS(=O)(=O)N1CCCC(C(=O)NCCCN2CCCC2=O)C1 (stereo not given)	inactive

SMILES	Potency
CCCC(=O)N1CCC1(C)C(=O)NS(=O)(=O)c1cccc(Cl)c1 (stereo not given)	inactive
O=C(Oc1ccc(/C=N/NC(=O)c2ccco2)cc1)c1ccccc1	inactive
COc1ccc(N(Cc2cccs2)C(=O)c2ccc(OC)c(Cl)c2)cc1	inconclusive [inhibitor, single point]
CCC(=O)N(Cc1cc2cc(C)c(C)cc2[nH]c1=O)C1CCCCC1	inconclusive [inhibitor, partial curve]
CC(=O)N1CCN(c2ccc(NC(=O)c3ccc(OCc4ccccc4)cc3)cc2)CC1	inconclusive [inhibitor, single point]
O=C(Cc1cccs1)N1CCN=C1SCc1ccc(Br)cc1	inconclusive [inhibitor, single point]
O=C1c2ccccc2C(c2nnnn2-c2ccc3c(c2)OCCO3)N1Cc1ccco1 (stereo not given)	inconclusive [inhibitor, single point]
COc1ccc(CNC(=O)Cn2cnc3c(OCc4ccccc4)ncnc32)cc1	inconclusive [inhibitor, single point]
COc1ccc2nc3c(cc2c1)c(NC(=O)CC(C)C)nn3CC(C)C	inactive
CSc1ncccc1C(=O)Nc1cccc(S(=O)(=O)N2CCCC2)c1	inconclusive [inhibitor, single point]
COc1cccc(CNc2ncc(-c3ccccc3)n2C)c1	inconclusive [inhibitor, single point]
O=C(NNc1c(Cl)cc(Cl)cc1Cl)c1n[nH]c(=O)c2ccccc12	inactive
CCN(CC(=O)NCc1cccs1)C(=O)c1cccc(S(=O)(=O)Nc2ccc(F)cc2)c1	inconclusive [inhibitor, single point]
CCCN(CCC)c1nc2c(C)cccn2c(=O)c1/C=C1/SC(=S)N(Cc2ccco2)C1=O	inconclusive [inhibitor, single point]
Cc1ccc(C(C(=O)NC2CCCCC2)N(Cc2ccco2)C(=O)Cc2c[nH]c3ccccc23)o1 (stereo not given)	inconclusive [inhibitor, single point]
Cc1onc(-c2ccccc2)c1C(=O)NC(C)CCc1ccccc1 (stereo not given)	inconclusive [inhibitor, partial curve]
COc1cccc(N2CCN(C(=O)C3CCN(S(=O)(=O)c4c(C)noc4/C=C/c4ccccc4F)CC3)CC2)c1	inconclusive [inhibitor, single point]
Cc1nccn1CCC1CCCCN1C(=O)CCc1nnc(-c2ccsc2)o1 (stereo not given)	inactive
CCN1/C(=C\C=C(C(C)=O)C(C)=O)Sc2ccccc21	inconclusive [inhibitor, single point]
CCCS(=O)(=O)c1c(S(=O)(=O)CCC)c2cc(C(C)(C)C)ccn2c1C(=O)c1ccccc1	active: 16.4 µM
COc1ccccc1NC(=O)Nc1nc(C(N)Cc2ccc(C(F)(F)F)cc2)cs1 (stereo not given)	active: 14.6 µM
O=C(Nc1cccc(NC(=O)c2cccc(Cl)c2)c1)c1cccnc1	inconclusive [inhibitor, partial curve]
